The source gives many values for each of these; only a part stands here.
Tested on: Rat
Experiment: concentration in plasma after dosing
Details: dosed: Formamide, 300 mg/kg, oral, Female, Harlan Sprague Dawley

concentration in plasma (5 min): 56.9 µg/mL
concentration in plasma (2 h): 232 µg/mL
SMILES: NC=O [Formamide]

From EPA's CvTdb concentration-time database
